This is an account of results in the supplement of paper PMC11417369.

Some of the results follow.

The test relates to PfHDP1 homeodomain (GST-tagged). As to the kind of experiment: gcPBM binding intensity (ln(normalized median fluorescence intensity)); higher = stronger DNA binding. The gist of the method:
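Each value is the highest Masliner-normalised natural-log median intensity across replicate spots of either orientation of a probe. The probes were primer-extended double-stranded 36-bp intergenic genomic sequences on an Agilent 4 × 180k array, alongside negative controls, exposed for 1 h to GST-tagged P. falciparum DNA-binding domains expressed in E. coli. Bound protein was picked up with Alexa488 anti-GST antibody and scanned at 488 nm.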
As for “AGAAATCATCTGAATTGTACTAACAATTTTTTTTAA [XGTACX_site6191]”, the “gcPBM binding intensity (ln)” value was determined as 5.88.

As for “TATTATAATAAAATATGTACACACATACACACATAT [XGTACX_site2360]”, the “gcPBM binding intensity (ln)” value was determined as 7.07.

As for “CTTAAATCTACTATTTGTACATATTTTATTATTAAA [XGTACX_site6151]”, the “gcPBM binding intensity (ln)” value turned out to be 6.38.

As to “AGCATATATTAAACATGTACATAAATATATTATATA [XGTACX_site1451]”, the “gcPBM binding intensity (ln)” value was found to be 6.39.

As for “TGTTATATATATACAAACATACACATTTATAAACAA [TGCATGCA_negctrl_site235]”, the “gcPBM binding intensity (ln)” value was determined as 6.73.

Regarding “TATTAATTTCTTTTTTCTCATCACTTTCAAAATGAA [CACACA_negctrl_site1055]”, the “gcPBM binding intensity (ln)” value came out at 6.35.

Turning to “TTATGATCATTTATATGTACACATAATTTTTGTGCT [XGTACX_site5568]”, the “gcPBM binding intensity (ln)” value came to 6.7.

For the sequence “GTTCAAATTCTTATACCTTTTTATTGAGCCATAATA [CACACA_negctrl_site210]”, the “gcPBM binding intensity (ln)” value amounted to 6.73.

As to “AAAAAAAGAAAAAAAACACACACAAATATAAATAAA [CACACA_site8309]”, the “gcPBM binding intensity (ln)” value was 6.66.

Regarding “GAATGAATGATAAATTTTTTTTTCTTTTTTTTTTTG [CACACA_negctrl_site333]”, the “gcPBM binding intensity (ln)” value came to 5.67.

Take “TATATATTTGTGAAAATATTAAAATAAATAAATAAA [CACACA_negctrl_site295]”: the “gcPBM binding intensity (ln)” value came out at 6.45.

Regarding “AAAATCTAGGTATTTATACACACTAATATAATATAC [CACACA_site8108]”, the “gcPBM binding intensity (ln)” value is 6.36.

Turning to “TAAAAAAAGAGATATTGTACACAAAAAAATTTTACT [XGTACX_site1342]”, the “gcPBM binding intensity (ln)” value stood at 6.59.

For “AAGTTCAAAATAAATGGTACAGAAGTATATATATCA [XGTACX_site174]”, the “gcPBM binding intensity (ln)” value is 6.45.

As for “TAGAAAAAAAAATACATACACACAATATATTTATTT [CACACA_site3123]”, the “gcPBM binding intensity (ln)” value was 6.21.

Regarding “CCATATATAATGACATGTACTCAAAAAAAAAAAAAA [XGTACX_site685]”, the “gcPBM binding intensity (ln)” value was 6.37.

For “TAATTCAAACGTGTATGTATATTACTCGAAGAAATA [CACACA_negctrl_site1779]”, the “gcPBM binding intensity (ln)” value was 6.2.

“TTTCAAGGATTTAATTTATGGAAACCTTCTTCATTT [GTGCAC_negctrl_site504]”: the “gcPBM binding intensity (ln)” value is 5.94.

For the sequence “TTTTTAAAAAAAAATAGAGAGTCAAAGTATGTGGCG [CACACA_negctrl_site194]”, the “gcPBM binding intensity (ln)” value is 6.82.

Consider “TTTCTCTTTTTTTGGGGTACAACCAATCCTATAATA [XGTACX_site297]”, for which the “gcPBM binding intensity (ln)” value turned out to be 6.81.

For “ATACATATATATATATGTACATATATTTATATTTAT [XGTACX_site3155]”, the “gcPBM binding intensity (ln)” value amounted to 6.42.

In the case of “AACCCTTTTGATTTTTCTTTTTTTTTTTTTTTAAAT [CACACA_negctrl_site1667]”, the “gcPBM binding intensity (ln)” value came out at 6.15.

For the sequence “CATATAAGACAAAAGGTGCAATTTTAATGCTTTTAT [GTGCAC_site9432]”, the “gcPBM binding intensity (ln)” value is 8.29.

Turning to “TAGTAAAATGGAACACGTACATATATCTATGTATAA [XGTACX_site6103]”, the “gcPBM binding intensity (ln)” value was 6.35.

As for “AGAAGGATATTATGAAGTACACATATTGTATATGGT [XGTACX_site7503]”, the “gcPBM binding intensity (ln)” value came out at 6.32.

For the sequence “ACAGTTTGTCTGAGTAGTACATAAATACTTGAAAGG [XGTACX_site7792]”, the “gcPBM binding intensity (ln)” value was found to be 6.36.

Take “AGGAAAATAATTAAAGCATGCTCATTATGAAATATA [TGCATGCA_site855]”: the “gcPBM binding intensity (ln)” value was found to be 7.07.

For “AATACATGAACTTAAAGTACTAAAAAAAAAATAATA [XGTACX_site1956]”, the “gcPBM binding intensity (ln)” value was 6.46.

For “ACAAATAAAAAAATTACACACATATAAAATATAGAT [CACACA_site6756]”, the “gcPBM binding intensity (ln)” value worked out at 6.37.

For “TATGAGAACAAACATTGTACAATAAAAAGTAGATAT [XGTACX_site920]”, the “gcPBM binding intensity (ln)” value was determined as 7.47.

For the sequence “CTCAAATAACTTTTTACACACATTATTTGAAATAAG [CACACA_site6722]”, the “gcPBM binding intensity (ln)” value worked out at 6.7.

In the case of “CAGAATACATACATTACACACAAATTTAAGTATATA [CACACA_site1781]”, the “gcPBM binding intensity (ln)” value was 6.36.

In the case of “ATATGAATGATCGTACGTACTTACATATTTATAAAG [XGTACX_site8041]”, the “gcPBM binding intensity (ln)” value was 6.51.

With “TACCCACTAAAATACACACACACACCCACATATATA [CACACA_site6141]”, the “gcPBM binding intensity (ln)” value was found to be 7.13.

On to “AATTTGAATATTTGATGTACAAAGTTTTTTAATGTT [XGTACX_site3249]”, for which the “gcPBM binding intensity (ln)” value stood at 6.14.

Take “TCTTACACTAATAAATGTACATACAAAAAATCTATT [XGTACX_site1379]”: the “gcPBM binding intensity (ln)” value came out at 6.37.

Regarding “AAATGTATAATTTTTTAATACACTTATTTAAAATAA [CACACA_negctrl_site797]”, the “gcPBM binding intensity (ln)” value turned out to be 6.17.

For the sequence “ATAAATATAACATATTGTACCCTTAAAAAGGAACAA [XGTACX_site352]”, the “gcPBM binding intensity (ln)” value came to 5.92.

On to “GTACCAACAGCACTACTTCTCGCCATTTTCTTGTAG [XGTACX_negctrl_site97]”, for which the “gcPBM binding intensity (ln)” value was found to be 6.8.

As for “GAGAGGATAGTTCACAGTACCCAGTAACTCTACGGA [XGTACX_site4876]”, the “gcPBM binding intensity (ln)” value stood at 6.02.

As to “TAAGTATATTTCTGCACACAAAAAAAAAAACCAAAA [CACACA_site4056]”, the “gcPBM binding intensity (ln)” value came out at 7.92.

Regarding “AAAATTTAATATGAATGTACATAAAAAAAAAAAAAA [XGTACX_site6719]”, the “gcPBM binding intensity (ln)” value turned out to be 6.76.

Regarding TATATATATATATATGTGCACATTTATTGCCTTTGC, the “gcPBM binding intensity (ln)” value was 10.6.

Regarding “TATAAATAAAGACTTTTTTCTAACTTTTTTTTGTAT [CACACA_negctrl_site1015]”, the “gcPBM binding intensity (ln)” value is 6.23.
